{"source": "paper PMC4336329", "about": "(PLoS ONE, 2015)", "note": "Screen size: about 310,000 compounds; about 14,000 (4.5%) showed an effect of 50% or more. The effect is printed as a negative number. This is one part of the list.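 Also: peak tail current of the secondary pulse compared with the same well before compound.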", "data": [{"target": "human ether-à-go-go-related gene (hERG) potassium channel (human, UniProt Q12809)", "sequence (Q12809 whole entry, looked up)": "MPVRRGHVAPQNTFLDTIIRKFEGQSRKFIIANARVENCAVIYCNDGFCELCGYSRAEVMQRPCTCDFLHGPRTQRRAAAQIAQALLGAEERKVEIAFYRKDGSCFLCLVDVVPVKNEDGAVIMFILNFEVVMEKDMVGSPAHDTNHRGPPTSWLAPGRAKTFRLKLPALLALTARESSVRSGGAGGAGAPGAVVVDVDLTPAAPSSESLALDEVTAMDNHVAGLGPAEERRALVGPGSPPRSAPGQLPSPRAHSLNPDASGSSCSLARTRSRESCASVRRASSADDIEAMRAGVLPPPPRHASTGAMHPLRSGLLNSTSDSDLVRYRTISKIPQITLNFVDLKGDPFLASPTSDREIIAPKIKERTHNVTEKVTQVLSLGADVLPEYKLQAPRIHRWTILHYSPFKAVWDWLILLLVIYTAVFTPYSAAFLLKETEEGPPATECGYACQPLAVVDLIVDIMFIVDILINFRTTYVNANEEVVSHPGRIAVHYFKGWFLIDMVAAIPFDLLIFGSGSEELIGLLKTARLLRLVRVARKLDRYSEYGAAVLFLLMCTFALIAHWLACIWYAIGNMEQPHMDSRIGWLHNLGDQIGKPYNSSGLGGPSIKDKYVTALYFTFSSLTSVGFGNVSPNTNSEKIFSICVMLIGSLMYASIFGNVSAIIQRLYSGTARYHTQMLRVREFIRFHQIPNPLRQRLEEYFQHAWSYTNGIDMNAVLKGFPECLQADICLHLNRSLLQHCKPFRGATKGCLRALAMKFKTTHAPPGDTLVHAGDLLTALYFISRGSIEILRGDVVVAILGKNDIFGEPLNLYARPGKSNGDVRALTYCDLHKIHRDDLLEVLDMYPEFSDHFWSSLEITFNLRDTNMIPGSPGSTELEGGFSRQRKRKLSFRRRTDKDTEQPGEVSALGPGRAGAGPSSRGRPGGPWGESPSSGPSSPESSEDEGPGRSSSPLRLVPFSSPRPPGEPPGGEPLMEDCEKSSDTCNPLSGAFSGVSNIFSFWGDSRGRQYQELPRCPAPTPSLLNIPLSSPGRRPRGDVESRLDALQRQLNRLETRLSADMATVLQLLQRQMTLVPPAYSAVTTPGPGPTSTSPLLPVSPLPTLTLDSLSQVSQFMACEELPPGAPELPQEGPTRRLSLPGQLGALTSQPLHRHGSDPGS", "experiment": "primary screen, population patch clamp on CHO cells stably expressing hERG", "units": {"hERG current change (%, negative = inhibition) at 10uM": "%"}, "values": [{"smiles": "COc1ccc(CCNc2cc(C)nc(N)n2)cc1OC", "hERG current change (%, negative = inhibition) at 10uM": 2.02}, {"smiles": "O=C(NC1CCCCC1)C(c1ccco1)N(C(=O)c1csnn1)C1CCCC1", "note": "(centres unmarked)", "hERG current change (%, negative = inhibition) at 10uM": -9.22}, {"smiles": "CCS(=O)(=O)c1nc(S(=O)(=O)c2ccc(Cl)cc2)c(NCc2ccccn2)s1", "hERG current change (%, negative = inhibition) at 10uM": 2.86}, {"smiles": "Cc1ccc(S(=O)(=O)CCC(=O)NCCN2C(=O)S/C(=C/c3ccc(F)cc3)C2=O)cc1", "hERG current change (%, negative = inhibition) at 10uM": -16.7}, {"smiles": "CCN(CC)CCNC(=O)CCc1nnc2ccc(N3CCC(C)CC3)nn12", "hERG current change (%, negative = inhibition) at 10uM": 15.3}, {"smiles": "CN(C)S(=O)(=O)c1ccc(Cl)c(C(=O)NCC2CCCCC2)c1", "hERG current change (%, negative = inhibition) at 10uM": -7.74}, {"smiles": "CC1(C)OCC(COC(=O)Nc2cccnc2)([N+](=O)[O-])CO1", "hERG current change (%, negative = inhibition) at 10uM": 23.8}, {"smiles": "C#CCOCCOCCOCCNc1nc(N2CCN(C(=O)[C@H](CCCCN)n3cc([C@@H](N)CO)nn3)CC2)nc(N2CCN(C(=O)[C@H](Cc3cc4ccccc4[nH]3)n3cc([C@@H](N)Cc4ccc(O)cc4)nn3)CC2)n1.Cl", "hERG current change (%, negative = inhibition) at 10uM": 1.28}, {"smiles": "CCC/C(=N\\NC(=O)c1ccc(OC)c(OC)c1)c1ccccc1", "hERG current change (%, negative = inhibition) at 10uM": -2.94}, {"smiles": "COc1ccc(CN(C)CC2CCCN(CCc3ccc(F)cc3)C2)c(OC)c1OC", "note": "(centres unmarked)", "hERG current change (%, negative = inhibition) at 10uM": -74.8}, {"smiles": "N#Cc1cccc(NC(=O)CC2CCCCC2)c1", "hERG current change (%, negative = inhibition) at 10uM": -21.3}, {"smiles": "CCOC(=O)c1cc2occc2n1CC(=O)NC1CCC(C)CC1", "note": "(centres unmarked)", "hERG current change (%, negative = inhibition) at 10uM": -3.58}, {"smiles": "CCOC(=O)C[C@H]1c2ccc(C(F)(F)F)cc2S(=O)(=O)N1C(C)C", "hERG current change (%, negative = inhibition) at 10uM": -14.4}, {"smiles": "Cc1[nH]c2ccccc2c1C(=O)CSc1cccc[n+]1[O-]", "hERG current change (%, negative = inhibition) at 10uM": 23.9}, {"smiles": "N/C(=N\\c1nc(CSc2ccccn2)cc(=O)[nH]1)Nc1ccc(Cl)cc1Cl", "hERG current change (%, negative = inhibition) at 10uM": 21.9}, {"smiles": "CC(C)CN(C(=O)CN1CCN(c2ccc([N+](=O)[O-])cc2)CC1)c1c(N)n(CC(C)C)c(=O)[nH]c1=O", "hERG current change (%, negative = inhibition) at 10uM": -36.7}, {"smiles": "CCCC(c1nnnn1Cc1ccc(OC)cc1)N1CCC(C(N)=O)CC1.Cl", "note": "(centres unmarked)", "hERG current change (%, negative = inhibition) at 10uM": -14.6}, {"smiles": "Cc1cc(C2(c3ccc(O)c(C)c3)C(=O)N(C)c3ccc(Br)cc32)ccc1O", "hERG current change (%, negative = inhibition) at 10uM": -2.28}, {"smiles": "COC(=O)c1sc2nc(CN3CCOCC3)nc(N3CCOCC3)c2c1C", "hERG current change (%, negative = inhibition) at 10uM": 1.53}, {"smiles": "CN(C)C(=O)c1cc(C(=O)c2ccc(F)cc2F)c[nH]1", "hERG current change (%, negative = inhibition) at 10uM": 14.6}, {"smiles": "Cn1cccc1C(=O)NCCc1ccccc1", "hERG current change (%, negative = inhibition) at 10uM": 6.72}, {"smiles": "O=[N+]([O-])c1ccc(S(=O)(=O)NCC(c2cccnc2)N2CCc3ccccc3C2)cc1", "note": "(centres unmarked)", "hERG current change (%, negative = inhibition) at 10uM": -35.6}, {"smiles": "Brc1ccc(-c2ccc(C3Nc4cccc5cccc(c45)N3)o2)cc1", "hERG current change (%, negative = inhibition) at 10uM": 6.67}, {"smiles": "C=CCn1c(-c2cccnc2Cl)nc2ccccc21", "hERG current change (%, negative = inhibition) at 10uM": 8.48}, {"smiles": "COc1ccc(CN(C(=O)Cc2c[nH]c3ccccc23)C(C(=O)NC2CCCCC2)c2ccc(C)o2)cc1", "note": "(centres unmarked)", "hERG current change (%, negative = inhibition) at 10uM": -3.73}, {"smiles": "CCC(=O)N/N=C(\\C)CC(=O)Nc1cccc([N+](=O)[O-])c1", "hERG current change (%, negative = inhibition) at 10uM": 9.57}, {"smiles": "Cc1ccc(/C=C2/SC(=Nc3ccc(F)cc3)NC2=O)s1", "hERG current change (%, negative = inhibition) at 10uM": 23.4}, {"smiles": "Cc1cccc(OCCn2cccc2/C=C2/C(=O)NC(=O)N(Cc3ccco3)C2=O)c1", "hERG current change (%, negative = inhibition) at 10uM": 9.97}, {"smiles": "Clc1ccccc1CSc1nncn1NC/C=C/c1ccccc1", "hERG current change (%, negative = inhibition) at 10uM": -5.97}, {"smiles": "Cl.O=C(Nc1ncccc1Cl)C1COc2ccccc2O1", "note": "(centres unmarked)", "hERG current change (%, negative = inhibition) at 10uM": -15.2}, {"smiles": "COc1ccc(OC)c(NC(=S)N2CCC(C(O)(c3ccccc3)c3ccccc3)CC2)c1", "hERG current change (%, negative = inhibition) at 10uM": -3.48}, {"smiles": "CC(NC(=O)C1CCCC1)c1ccc2c(c1)OCCO2", "note": "(centres unmarked)", "hERG current change (%, negative = inhibition) at 10uM": -11.3}, {"smiles": "O=C(Nc1cc(S(=O)(=O)Nc2ccc(Cl)cc2)ccc1N1CCCCC1)c1ccc(F)cc1", "hERG current change (%, negative = inhibition) at 10uM": 8.86}, {"smiles": "COc1ccc(C(=O)Nc2ccc(C(=O)Nc3nccs3)cc2)cc1[N+](=O)[O-]", "hERG current change (%, negative = inhibition) at 10uM": 6.33}, {"smiles": "Cc1c(NC(=O)CN2C(=O)NC(C)(c3ccc(OC(F)F)cc3)C2=O)c(=O)n(-c2ccccc2)n1C", "note": "(centres unmarked)", "hERG current change (%, negative = inhibition) at 10uM": 20}, {"smiles": "Cc1cc(C)c(S(=O)(=O)N2CCOC2CNC(=O)C(=O)NCc2ccncc2)c(C)c1", "note": "(centres unmarked)", "hERG current change (%, negative = inhibition) at 10uM": 21}, {"smiles": "CCC1C(=NO)C(CC)C(c2ccccc2)NC1c1ccccc1", "note": "(centres unmarked)", "hERG current change (%, negative = inhibition) at 10uM": 4.66}, {"smiles": "CCOC(=O)CNC(=O)CNC(=O)Cn1ccc2ccccc2c1=O", "hERG current change (%, negative = inhibition) at 10uM": 9.64}, {"smiles": "CCOC(=O)c1c(NC(=O)CSc2c[nH]c3ccccc23)sc2c1CCC2", "hERG current change (%, negative = inhibition) at 10uM": 14.6}, {"smiles": "CCC(=O)Nc1nc2ccc([N+](=O)[O-])cc2s1", "hERG current change (%, negative = inhibition) at 10uM": 9.55}, {"smiles": "CC1=CC(=O)C=CC1(C)C(Cl)(Cl)Cl", "note": "(centres unmarked)", "hERG current change (%, negative = inhibition) at 10uM": -4.19}, {"smiles": "C=CCn1c(CNC(=O)c2cccs2)nnc1SCC(=O)Nc1ccc(C(=O)O)cc1", "hERG current change (%, negative = inhibition) at 10uM": 11.5}, {"smiles": "CCC(C)Nc1nc(N)c([N+](=O)[O-])c(NCCO)n1", "note": "(centres unmarked)", "hERG current change (%, negative = inhibition) at 10uM": 3.86}, {"smiles": "CC(c1nccs1)N(C)C(=O)CCc1nnc(CCc2ccccc2)o1", "note": "(centres unmarked)", "hERG current change (%, negative = inhibition) at 10uM": 0.72}, {"smiles": "CCOC(=O)N1CCC(NC(=O)CS(=O)Cc2nc(-c3ccc(C)cc3)oc2C)CC1", "note": "(centres unmarked)", "hERG current change (%, negative = inhibition) at 10uM": -2.4}, {"smiles": "COc1ccc(CN=Nc2cc(C)nc(NS(=O)(=O)c3ccccc3Cl)n2)cc1", "hERG current change (%, negative = inhibition) at 10uM": 15.8}, {"smiles": "Cc1ccc(CCCOC(=O)C[N+]2(C)CCOCC2)cc1.[I-]", "hERG current change (%, negative = inhibition) at 10uM": 5.11}, {"smiles": "COc1cc(/C=N/Nc2nc(N3CCCCC3)nc(N3CCCCC3)n2)ccc1OC(=O)c1ccco1", "hERG current change (%, negative = inhibition) at 10uM": 8.29}, {"smiles": "Cc1ccc(-c2nnc(SCC(=O)NC3CC3)o2)cc1", "hERG current change (%, negative = inhibition) at 10uM": -7.55}, {"smiles": "CCCCCOc1ccc(NC2=CC(=O)CCC2)cc1", "hERG current change (%, negative = inhibition) at 10uM": -12.6}, {"smiles": "O=C(Cc1c(F)cccc1Cl)NC1CCN(Cc2ccccc2)CC1", "hERG current change (%, negative = inhibition) at 10uM": -0.715}, {"smiles": "Cc1cc(NS(=O)(=O)c2ccc(NC(=O)CCCOc3ccccc3C)cc2)nc(C)n1", "hERG current change (%, negative = inhibition) at 10uM": 12.2}, {"smiles": "CCN(CC)C(=N)/C(C#N)=N/Nc1ccccc1", "hERG current change (%, negative = inhibition) at 10uM": -15.7}]}]}
